# Results published in the supplement of paper PMC10037445.
# ± gives the standard deviation of the averaged measurements. Over roughly 2,900 compounds, “NF-kB SEAP reporter activity, fold change vs agonist alone” has its median near 0.99; the highest 2% begin near 2.6. The list shows a part of the results.
# How the values were obtained:
# RAW-Dual [1] = assay: NF-kB SEAP reporter activity, fold change vs agonist alone; cytotoxicity flag (confluency mask): not cytotoxic; higher = enhanced NF-kB activity
# Procedure, shortened: (§1)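 RAW-Dual macrophages were seeded in DMEM at 50,000 cells/well in 384-well plates, given 50 nL of library stock by pin tool, and given a PRR agonist 1 h later. Plates were held at 37 °C, 5% CO2 for 20 hours, after which supernatant was read for IRF by QuantiLuc luminescence and for NF-κB by QuantiBlue absorbance at 620 nm. Reporter activity is expressed as fold change over wells that received agonist alone. A well was called cytotoxic when IncuCyte confluency fell below 70% of agonist controls in both mask sets.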
# RAW-Dual [2] = assay: NF-kB SEAP reporter activity, fold change vs agonist alone; higher = enhanced NF-kB activity
# Procedure, shortened: as §1
# RAW-Dual [3] = assay: NF-kB SEAP reporter activity, fold change vs agonist alone; cytotoxicity flag (confluency mask): cytotoxic (confluency <70% of control); higher = enhanced NF-kB activity
# Procedure, shortened: as §1
# [4] = agonist: ODN 1826 (TLR9) 0.5 ug/mL
# [5] = agonist: Pam2CSK4 (TLR2/6) 0.1 ug/mL
# [6] = agonist: Pam3CSK4 (TLR2/1) 0.1 ug/mL
# [7] = library stock concentration (final ~1000-fold dilution): 10 mM, cytotoxicity flag (confluency mask): not cytotoxic, agonist: Imiquimod (TLR7) […]
# [8] = library stock concentration (final ~1000-fold dilution): 10 mM, cytotoxicity flag (confluency mask): not cytotoxic, agonist: MPLA (TLR4) […]
compound,measurement,setting,value
CCC(C)CC(C)CCCCCCCCC(=O)NC1CC(O)C(NCCN)NC(=O)C2C(O)CCN2C(=O)C(C(O)CCN)NC(=O)C(C(O)C(O)c2ccc(O)cc2)NC(=O)C2CC(O)CN2C(=O)C(C(C)O)NC1=O (configuration not stated) (library stock concentration (final ~1000-fold dilution): 10 mM water),NF-kB SEAP reporter activity,RAW-Dual [1]; agonist: LPS (TLR4) 0.1 ug/mL,1.29
same,NF-kB SEAP reporter activity,RAW-Dual [1]; [4],1.08
same,NF-kB SEAP reporter activity,RAW-Dual [1]; [5],1.09
same,NF-kB SEAP reporter activity,RAW-Dual [1]; [6],0.968
CCC(C)CC(C)CCCCCCCCC(=O)NC1CC(O)C(NCCN)NC(=O)C2C(O)CCN2C(=O)C(C(O)CCN)NC(=O)C(C(O)C(O)c2ccc(O)cc2)NC(=O)C2CC(O)CN2C(=O)C(C(C)O)NC1=O (configuration not stated),NF-kB SEAP reporter activity,"RAW-Dual [2]; library stock concentration (final ~1000-fold dilution): 10 mM water, cytotoxicity flag (confluency mask): not cytotoxic, agonist: Imiquimod (TLR7) […]",0.901
same,NF-kB SEAP reporter activity,"RAW-Dual [2]; library stock concentration (final ~1000-fold dilution): 10 mM water, cytotoxicity flag (confluency mask): not cytotoxic, agonist: MPLA (TLR4) […]",0.866
CC(=O)ON=C1C(c2c(O)[nH]c3cc(Br)ccc23)=Nc2ccccc21 (library stock concentration (final ~1000-fold dilution): 10 mM),NF-kB SEAP reporter activity,RAW-Dual [1]; agonist: LPS (TLR4) 0.1 ug/mL,3.28
same,NF-kB SEAP reporter activity,RAW-Dual [1]; [4],1.19
same,NF-kB SEAP reporter activity,RAW-Dual [1]; [5],1.55
same,NF-kB SEAP reporter activity,RAW-Dual [1]; [6],1.41
CC(=O)ON=C1C(c2c(O)[nH]c3cc(Br)ccc23)=Nc2ccccc21,NF-kB SEAP reporter activity,RAW-Dual [2]; [7],1.07
same,NF-kB SEAP reporter activity,RAW-Dual [2]; [8],1.48
CC(C)Cc1ccc(C(C)C(=O)O)cc1 (configuration not stated),NF-kB SEAP reporter activity,RAW-Dual [2]; [7],0.911
same,NF-kB SEAP reporter activity,RAW-Dual [2]; [8],1.06
CC(C)Cc1ccc(C(C)C(=O)O)cc1 (configuration not stated) (library stock concentration (final ~1000-fold dilution): 10 mM),NF-kB SEAP reporter activity,RAW-Dual [1]; agonist: LPS (TLR4) 0.1 ug/mL,0.987
same,NF-kB SEAP reporter activity,RAW-Dual [1]; [4],0.995
same,NF-kB SEAP reporter activity,RAW-Dual [1]; [5],1.08
same,NF-kB SEAP reporter activity,RAW-Dual [1]; [6],1.15
CN1CC2c3ccccc3Oc3ccc(Cl)cc3C2C1.O=C(O)/C=C\C(=O)O (configuration not stated) (library stock concentration (final ~1000-fold dilution): 10 mM),NF-kB SEAP reporter activity,RAW-Dual [3]; agonist: LPS (TLR4) 0.1 ug/mL,1.4
same,NF-kB SEAP reporter activity,RAW-Dual [3]; [4],0.37
same,NF-kB SEAP reporter activity,RAW-Dual [3]; [5],0.801
same,NF-kB SEAP reporter activity,RAW-Dual [3]; [6],0.93
CN1CC2c3ccccc3Oc3ccc(Cl)cc3C2C1.O=C(O)/C=C\C(=O)O (configuration not stated),NF-kB SEAP reporter activity,"RAW-Dual [2]; library stock concentration (final ~1000-fold dilution): 10 mM, cytotoxicity flag (confluency mask): cytotoxic (confluency <70% of control), agonist: Imiquimod (TLR7) […]",1.84
same,NF-kB SEAP reporter activity,"RAW-Dual [2]; library stock concentration (final ~1000-fold dilution): 10 mM, cytotoxicity flag (confluency mask): cytotoxic (confluency <70% of control), agonist: MPLA (TLR4) […]",1.38
COc1ccnc(CS(=O)c2nc3ccc(OC(F)F)cc3[nH]2)c1OC (configuration not stated),NF-kB SEAP reporter activity,RAW-Dual [2]; [7],0.935
same,NF-kB SEAP reporter activity,RAW-Dual [2]; [8],0.878
COc1ccnc(CS(=O)c2nc3ccc(OC(F)F)cc3[nH]2)c1OC (configuration not stated) (library stock concentration (final ~1000-fold dilution): 10 mM),NF-kB SEAP reporter activity,RAW-Dual [1]; agonist: LPS (TLR4) 0.1 ug/mL,0.823
same,NF-kB SEAP reporter activity,RAW-Dual [1]; [4],0.903
same,NF-kB SEAP reporter activity,RAW-Dual [1]; [5],0.686
same,NF-kB SEAP reporter activity,RAW-Dual [1]; [6],0.908
COc1cccc(C=NCCN=Cc2cccc(OC)c2[O-])c1[O-].[Cl-].[Mn+2] (library stock concentration (final ~1000-fold dilution): 10 mM),NF-kB SEAP reporter activity,RAW-Dual [1]; agonist: LPS (TLR4) 0.1 ug/mL,0.702
same,NF-kB SEAP reporter activity,RAW-Dual [1]; [4],0.185
same,NF-kB SEAP reporter activity,RAW-Dual [1]; [5],0.791
same,NF-kB SEAP reporter activity,RAW-Dual [1]; [6],0.479
COc1cccc(C=NCCN=Cc2cccc(OC)c2[O-])c1[O-].[Cl-].[Mn+2],NF-kB SEAP reporter activity,RAW-Dual [2]; [7],0.261
same,NF-kB SEAP reporter activity,RAW-Dual [2]; [8],0.39
Cc1cc(C(=O)C2=C(O)C(=O)N(CCCN3CCOCC3)C2c2ccncc2)ccc1OCc1ccccc1 (configuration not stated),NF-kB SEAP reporter activity,RAW-Dual [2]; [7],0.934
same,NF-kB SEAP reporter activity,RAW-Dual [2]; [8],1.01
Cc1cc(C(=O)C2=C(O)C(=O)N(CCCN3CCOCC3)C2c2ccncc2)ccc1OCc1ccccc1 (configuration not stated) (library stock concentration (final ~1000-fold dilution): 10 mM),NF-kB SEAP reporter activity,RAW-Dual [1]; agonist: LPS (TLR4) 0.1 ug/mL,1.02
same,NF-kB SEAP reporter activity,RAW-Dual [1]; [4],0.972
same,NF-kB SEAP reporter activity,RAW-Dual [1]; [5],1.06
same,NF-kB SEAP reporter activity,RAW-Dual [1]; [6],0.825
COCCc1ccc(OCC(O)CNC(C)C)cc1 (configuration not stated) (library stock concentration (final ~1000-fold dilution): 10 mM),NF-kB SEAP reporter activity,RAW-Dual [1]; agonist: LPS (TLR4) 0.1 ug/mL,1.13
same,NF-kB SEAP reporter activity,RAW-Dual [1]; [4],0.824
same,NF-kB SEAP reporter activity,RAW-Dual [1]; [5],1.11
same,NF-kB SEAP reporter activity,RAW-Dual [1]; [6],0.806
COCCc1ccc(OCC(O)CNC(C)C)cc1 (configuration not stated),NF-kB SEAP reporter activity,RAW-Dual [2]; [8],1.07
CCN1CCN(Cc2ccc(Nc3ncc(F)c(-c4cc(F)c5nc(C)n(C(C)C)c5c4)n3)nc2)CC1,NF-kB SEAP reporter activity,RAW-Dual [2]; [7],1.63
same,NF-kB SEAP reporter activity,RAW-Dual [2]; [8],2.06
CCN1CCN(Cc2ccc(Nc3ncc(F)c(-c4cc(F)c5nc(C)n(C(C)C)c5c4)n3)nc2)CC1 (library stock concentration (final ~1000-fold dilution): 10 mM),NF-kB SEAP reporter activity,RAW-Dual [1]; agonist: LPS (TLR4) 0.1 ug/mL,1.78
same,NF-kB SEAP reporter activity,RAW-Dual [1]; [4],0.371
same,NF-kB SEAP reporter activity,RAW-Dual [1]; [5],0.966
same,NF-kB SEAP reporter activity,RAW-Dual [1]; [6],0.915
N#Cc1ccc(COCC2OC(n3c(NCc4ccc(Cl)c(Cl)c4)nc4c(N)ncnc43)C(O)C2O)cc1 (configuration not stated),NF-kB SEAP reporter activity,RAW-Dual [2]; [7],0.762
same,NF-kB SEAP reporter activity,RAW-Dual [2]; [8],0.966
N#Cc1ccc(COCC2OC(n3c(NCc4ccc(Cl)c(Cl)c4)nc4c(N)ncnc43)C(O)C2O)cc1 (configuration not stated) (library stock concentration (final ~1000-fold dilution): 10 mM),NF-kB SEAP reporter activity,RAW-Dual [1]; agonist: LPS (TLR4) 0.1 ug/mL,0.934
same,NF-kB SEAP reporter activity,RAW-Dual [1]; [4],1.01
same,NF-kB SEAP reporter activity,RAW-Dual [1]; [5],0.742
same,NF-kB SEAP reporter activity,RAW-Dual [1]; [6],0.944
CC1OC(OC2C(=O)c3c(O)cc(O)cc3OC2c2ccc(O)cc2)C(O)C(O)C1O (configuration not stated) (library stock concentration (final ~1000-fold dilution): 10 mM),NF-kB SEAP reporter activity,RAW-Dual [1]; agonist: LPS (TLR4) 0.1 ug/mL,1.09 ± 0.015
same,NF-kB SEAP reporter activity,RAW-Dual [1]; [4],0.9919 ± 0.0043
same,NF-kB SEAP reporter activity,RAW-Dual [1]; [5],1.06 ± 0.064
same,NF-kB SEAP reporter activity,RAW-Dual [1]; [6],1.39 ± 0.41
CC1OC(OC2C(=O)c3c(O)cc(O)cc3OC2c2ccc(O)cc2)C(O)C(O)C1O (configuration not stated),NF-kB SEAP reporter activity,RAW-Dual [2]; [7],1.03 ± 0.025
same,NF-kB SEAP reporter activity,RAW-Dual [2]; [8],1.04 ± 0.041
CC(C)=CCC(O)C1=CC(=O)c2c(O)ccc(O)c2C1=O (configuration not stated),NF-kB SEAP reporter activity,RAW-Dual [2]; [7],0.16
same,NF-kB SEAP reporter activity,RAW-Dual [2]; [8],0.285
CC(C)=CCC(O)C1=CC(=O)c2c(O)ccc(O)c2C1=O (configuration not stated) (library stock concentration (final ~1000-fold dilution): 10 mM),NF-kB SEAP reporter activity,RAW-Dual [1]; agonist: LPS (TLR4) 0.1 ug/mL,0.34
same,NF-kB SEAP reporter activity,RAW-Dual [1]; [4],0.199
same,NF-kB SEAP reporter activity,RAW-Dual [1]; [5],0.0927
same,NF-kB SEAP reporter activity,RAW-Dual [1]; [6],0.256
COc1ccc2c(c1)C(C(=O)N(Cc1ccc(N(C)C)cc1)c1ccc(C(C)C)cc1)CCC2 (configuration not stated),NF-kB SEAP reporter activity,RAW-Dual [2]; [7],0.833
same,NF-kB SEAP reporter activity,RAW-Dual [2]; [8],1.04
COc1ccc2c(c1)C(C(=O)N(Cc1ccc(N(C)C)cc1)c1ccc(C(C)C)cc1)CCC2 (configuration not stated) (library stock concentration (final ~1000-fold dilution): 10 mM),NF-kB SEAP reporter activity,RAW-Dual [1]; agonist: LPS (TLR4) 0.1 ug/mL,1.17
same,NF-kB SEAP reporter activity,RAW-Dual [1]; [4],0.295
same,NF-kB SEAP reporter activity,RAW-Dual [1]; [5],0.481
same,NF-kB SEAP reporter activity,RAW-Dual [1]; [6],0.7
